From patent US20250018038A1 (UNIVERSITY OF CHICAGO, published 2025)
Residue numbers refer to the chain shown, from its start. No constants are given. Whether binding was seen depends on the method and setting. Some results given as binding are weak or reduced against the parent protein; the word gives no strength. One block for each binder: values may come before it.

Protein sequences, listed by entry. Tags and fused reporters are not part of them. Residues count along the entry.
UniProt O15392, residues 1-140: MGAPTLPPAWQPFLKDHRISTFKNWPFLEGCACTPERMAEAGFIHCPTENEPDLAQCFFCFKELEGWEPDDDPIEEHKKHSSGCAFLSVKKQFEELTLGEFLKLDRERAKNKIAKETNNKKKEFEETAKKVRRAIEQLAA

Columns and labels:
[1] = substrate: T1, INC-N; assay: single point protein ELISA: 50 nM Avi-tagged target on neutravidin plate, 200 nM Fab, protein L-HRP
T1 sequence (chain, by the resolver, Biotinylated Avi tag, held on neutravidin; not in the letters): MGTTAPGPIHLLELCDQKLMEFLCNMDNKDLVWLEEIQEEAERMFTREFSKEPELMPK

[2] = biological target: Survivin (purified recombinant Survivin protein) (human) (UniProt O15392); assay: as above
Bor-N [3] = biological target: T2, Bor-N (Biotinylated Avi tag, held on neutravidin; not in the letters); assay: as above
T2 construct: also called Bor N: 20-88; Borealin N-terminal domain; not shown: Avi tag, and any purification tag or linker
T2 chain: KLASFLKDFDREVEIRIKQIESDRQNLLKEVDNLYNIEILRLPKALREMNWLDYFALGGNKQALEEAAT

Bor-C [4] = biological target: T3, Bor-C (Biotinylated Avi tag, held on neutravidin; not in the letters); assay: as above
T3 construct: also called Bor C: 207-280; Borealin C-terminal domain; not shown: Avi tag, and any purification tag or linker
T3 chain: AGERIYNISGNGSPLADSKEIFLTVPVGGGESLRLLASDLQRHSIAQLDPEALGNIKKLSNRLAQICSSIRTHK

[5] = biological target: Survivin (purified recombinant Survivin protein) (human) (UniProt O15392); assay: western blot after SDS-PAGE, SUR-N-45 Fab as primary reagent, anti-human F(ab')2 IgG-HRP
[6] = biological target: Survivin (purified recombinant Survivin protein) (human) (UniProt O15392); assay: western blot of recombinant Survivin probed with the Fab
[7] = biological target: Survivin (purified recombinant Survivin protein) (human) (UniProt O15392); assay: single point protein ELISA, hSUR + FAB against FAB only
Bor-N [8] = biological target: T2, Bor-N; assay: single point protein ELISA, 50 nM immobilised target
Procedure: (§1) To rapidly reconfirm the binding and specificity of the obtained Fabs after reformatting into the expression vectors single-point Fab ELISA was performed (FIG. 2-3). Briefly, 50 nM Avi-tagged targets were immobilized on the prepared NAV-coated and blocked with 0.5% BSA in PBS 96-well ELISA plates. The target coated plates were washed with appropriate buffer (TBST or PBST) and were incubated with 200 nM Fab for 20 minutes and then washed. The washed plates were incubated with protein L conjugated with HRP (1:5000 diluted in TBST) for 30 minutes. Plates were washed and the reaction was developed using the TMB chromogenic substrate (Thermofisher) and subsequently quenched with 1M HCl. Absorbance was read at 450 nm on Epoch plate reader.

Bor-C [9] = biological target: T3, Bor-C; assay: as above
Procedure: as §1

[10] = substrate: T1, ; assay: as above

B1: SUR-FL-27 (Fab, V domains shown)
VH: EVQLVESGGGLVQPGGSLRLSCAASGFNVYSSYIHWVRQAPGKGLEWVASIYPSSGYTYYADSVKGRFTISADTSKNTAYLQMNSLRAEDTAVYYCARMSYYSWYYHSVYMYGLDYWGQGTLVTVSS
VL: DIQMTQSPSSLSASVGDRVTITCRASQSVSSAVAWYQQKPGKAPKLLIYSASSLYSGVPSRFSGSRSGTDFTLTISSLQPEDFATYYCQQASSDHSLITFGQGTKVEIKR
notes: also called SUR-FL-27 Fab
binding [1]: binds
binding [2]: binds
binding (Bor-N [3]): binds
binding (Bor-C [4]): binds

B2: SUR-N-45 Fab (Fab, V domains shown)
VH: EVQLVESGGGLVQPGGSLRLSCAASGFNLSSSSIHWVRQAPGKGLEWVASISSYSGYTYYADSVKGRFTISADTSKNTAYLQMNSLRAEDTAVYYCARPHWNSSYFSGWAMDYWGQGTLVTVSS
VL: DIQMTQSPSSLSASVGDRVTITCRASQSVSSAVAWYQQKPGKAPKLLIYSASSLYSGVPSRFSGSRSGTDFTLTISSLQPEDFATYYCQQWSSKSPITFGQGTKVEIKR
binding [5]: binds
binding [6]: binds
binding [2]: binds

Now from value to binder, other results behind:

binding (Bor-N [8]): no binding (tested: 200 nM)
B3: SUR-N-40 Fab (Fab, V domains shown)
VH: EVQLVESGGGLVQPGGSLRLSCAASGFNFSSSSIHWVRQAPGKGLEWVAYIYPSYGYTSYADSVKGRFTISADTSKNTAYLQMNSLRAEDTAVYYCARSLYSKMWYYGSYYFYQVGLDYWGQGTLVTVSS
VL: DIQMTQSPSSLSASVGDRVTITCRASQSVSSAVAWYQQKPGKAPKLLIYSASSLYSGVPSRFSGSRSGTDFTLTISSLQPEDFATYYCQQGYKYLVTFGQGTKVEIKR
binding [7]: binds
binding [2]: binds

binding (Bor-N [8]): no binding (tested: 200 nM)
binding (Bor-C [9]): no binding (tested: 200 nM)
binding [10]: no binding (tested: 200 nM)
B4: SUR-FL-26 (Fab, V domains shown)
VH: EVQLVESGGGLVQPGGSLRLSCAASGFNVSYSSIHWVRQAPGKGLEWVASISPYYGYTYYADSVKGRFTISADTSKNTAYLQMNSLRAEDTAVYYCARWYFEYPYYMWGLDYWGQGTLVTVSS
VL: B3 VL with G91S, Y94P, L95P, V96I
notes: also called SUR-FL-26 Fab
binding [2]: binds

binding (Bor-N [8]): no binding (tested: 200 nM)
binding (Bor-C [9]): no binding (tested: 200 nM)
binding [10]: no binding (tested: 200 nM)
B5: SUR-FL-29 Fab (Fab, V domains shown)
VH: EVQLVESGGGLVQPGGSLRLSCAASGFNVSYYSIHWVRQAPGKGLEWVASIYPYYGSTSYADSVKGRFTISADTSKNTAYLQMNSLRAEDTAVYYCARWQFYGYYHGLYFTDLGIDYWGQGTLVTVSS
VL: B3 VL with G91S, Y92G, K93G, Y94F, L95P, V96I
binding [2]: binds
